Earlier results on one compound are cited in publication PMC13286052 (Antimicrobial Agents and Chemotherapy, 2026).

For data set [1] the following is noted: cited from earlier work.
The conditions of data set [2]: cited from earlier work. This is another data set of the same source.

Turning to `O=C(NCCc1ccc(F)cc1F)c1cn(Cc2ccc(F)cc2)cc(O)c1=O` [ZW-2038], the “aqueous solubility (in words)” value in data set [1] was “poor”. Also, the plasma stability entry in data set [2] is given as “excellent”.
